According to the supplement of paper PMC11876631:
± gives the standard deviation of the averaged measurements. Laboratory Escherichia coli strains with one amino-acid change in an essential protein, pooled on minimal glucose agar with carbenicillin or gentamicin at twice the control MIC (plus kanamycin and chloramphenicol for the plasmids), 48 h. Fold change of barcode share against drug-free plates; higher = less susceptible. Active = above 20 in both replicates (the paper's putatively resistant). '<' = one read or none on drug, '>' = one read or none on a drug-free plate. Shares are relative, so most strains fall below 1 when a few take over. Listed are strains with at least 15 reads on both drug-free plates, and hits; most hits rest on fewer reference reads. Replicate rank correlation about 0.5. Edits are read from barcodes.

B1: aroB M274Q (protein)
chain: MERIVVTLGERSYPITIASGLFNEPASFLPLKSGEQVMLVTNETLAPLYLDKVRGVLEQAGVNVDSVILPDGEQYKSLAVLDTVFTALLQKPHGRDTTLVALGGGVVGDLTGFAAASYQRGVRFIQVPTTLLSQVDSSVGGKTAVNHPLGKNMIGAFYQPASVVVDLDCLKTLPPRELASGLAEVIKYGIILDGAFFNWLEENLDALLRLDGPAMAYCIRRCCELKAEVVAADERETGLRALLNLGHTFGHAIEAEMGYGNWLHGEAVAAGMVQAARTSERLGQFSSAETQRIITLLKRAGLPVNGPREMSAQAYLPHMLRDKKVLAGEMRLILPLAIGKSEVRSGVSHELVLNAIADCQSA
B2: aroB M274D (protein)
chain: MERIVVTLGERSYPITIASGLFNEPASFLPLKSGEQVMLVTNETLAPLYLDKVRGVLEQAGVNVDSVILPDGEQYKSLAVLDTVFTALLQKPHGRDTTLVALGGGVVGDLTGFAAASYQRGVRFIQVPTTLLSQVDSSVGGKTAVNHPLGKNMIGAFYQPASVVVDLDCLKTLPPRELASGLAEVIKYGIILDGAFFNWLEENLDALLRLDGPAMAYCIRRCCELKAEVVAADERETGLRALLNLGHTFGHAIEAEMGYGNWLHGEAVAAGMVDAARTSERLGQFSSAETQRIITLLKRAGLPVNGPREMSAQAYLPHMLRDKKVLAGEMRLILPLAIGKSEVRSGVSHELVLNAIADCQSA
B3: ligA V556Q (protein)
chain: MESIEQQLTELRTTLRHHEYLYHVMDAPEIPDAEYDRLMRELRELETKHPELITPDSPTQRVGAAPLAAFSQIRHEVPMLSLDNVFDEESFLAFNKRVQDRLKNNEKVTWCCELKLDGLAVSILYENGVLVSAATRGDGTTGEDITSNVRTIRAIPLKLHGENIPARLEVRGEVFLPQAGFEKINEDARRTGGKVFANPRNAAAGSLRQLDPRITAKRPLTFFCYGVGVLEGGELPDTHLGRLLQFKKWGLPVSDRVTLCESAEEVLAFYHKVEEDRPTLGFDIDGVVIKVNSLAQQEQLGFVARAPRWAVAFKFPAQEQMTFVRDVEFQVGRTGAITPVARLEPVHVAGVLVSNATLHNADEIERLGLRIGDKVVIRRAGDVIPQVVNVVLSERPEDTREVVFPTHCPVCGSDVERVEGEAVARCTGGLICGAQRKESLKHFVSRRAMDVDGMGDKIIDQLVEKEYVHTPADLFKLTAGKLTGLERMGPKSAQNVVNALEKAKETTFARFLYALGIREVGEATAAGLAAYFGTLEALEAASIEELQKVPDVGIVQASHVHNFFAEESNRNVISELLAEGVHWPAPIVINAEEIDSPFAGKTVVLTGSLSQMSRDDAKARLVELGAKVAGSVSKKTDLVIAGEAAGSKLAKAQELGIEVIDEAEMLRLLGS
B4: ligA V560W (protein)
chain: MESIEQQLTELRTTLRHHEYLYHVMDAPEIPDAEYDRLMRELRELETKHPELITPDSPTQRVGAAPLAAFSQIRHEVPMLSLDNVFDEESFLAFNKRVQDRLKNNEKVTWCCELKLDGLAVSILYENGVLVSAATRGDGTTGEDITSNVRTIRAIPLKLHGENIPARLEVRGEVFLPQAGFEKINEDARRTGGKVFANPRNAAAGSLRQLDPRITAKRPLTFFCYGVGVLEGGELPDTHLGRLLQFKKWGLPVSDRVTLCESAEEVLAFYHKVEEDRPTLGFDIDGVVIKVNSLAQQEQLGFVARAPRWAVAFKFPAQEQMTFVRDVEFQVGRTGAITPVARLEPVHVAGVLVSNATLHNADEIERLGLRIGDKVVIRRAGDVIPQVVNVVLSERPEDTREVVFPTHCPVCGSDVERVEGEAVARCTGGLICGAQRKESLKHFVSRRAMDVDGMGDKIIDQLVEKEYVHTPADLFKLTAGKLTGLERMGPKSAQNVVNALEKAKETTFARFLYALGIREVGEATAAGLAAYFGTLEALEAASIEELQKVPDVGIVVASHWHNFFAEESNRNVISELLAEGVHWPAPIVINAEEIDSPFAGKTVVLTGSLSQMSRDDAKARLVELGAKVAGSVSKKTDLVIAGEAAGSKLAKAQELGIEVIDEAEMLRLLGS
B5: ligA V560A (protein)
chain: MESIEQQLTELRTTLRHHEYLYHVMDAPEIPDAEYDRLMRELRELETKHPELITPDSPTQRVGAAPLAAFSQIRHEVPMLSLDNVFDEESFLAFNKRVQDRLKNNEKVTWCCELKLDGLAVSILYENGVLVSAATRGDGTTGEDITSNVRTIRAIPLKLHGENIPARLEVRGEVFLPQAGFEKINEDARRTGGKVFANPRNAAAGSLRQLDPRITAKRPLTFFCYGVGVLEGGELPDTHLGRLLQFKKWGLPVSDRVTLCESAEEVLAFYHKVEEDRPTLGFDIDGVVIKVNSLAQQEQLGFVARAPRWAVAFKFPAQEQMTFVRDVEFQVGRTGAITPVARLEPVHVAGVLVSNATLHNADEIERLGLRIGDKVVIRRAGDVIPQVVNVVLSERPEDTREVVFPTHCPVCGSDVERVEGEAVARCTGGLICGAQRKESLKHFVSRRAMDVDGMGDKIIDQLVEKEYVHTPADLFKLTAGKLTGLERMGPKSAQNVVNALEKAKETTFARFLYALGIREVGEATAAGLAAYFGTLEALEAASIEELQKVPDVGIVVASHAHNFFAEESNRNVISELLAEGVHWPAPIVINAEEIDSPFAGKTVVLTGSLSQMSRDDAKARLVELGAKVAGSVSKKTDLVIAGEAAGSKLAKAQELGIEVIDEAEMLRLLGS

Target: Escherichia coli (laboratory strain)
Experiment: barcode share on antibiotic plates over drug-free plates; higher = less susceptible
Details: antibiotic: carbenicillin; 2× MIC (3.1 µg/mL)
Protocol: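 A pool of E. coli strains, each edited to carry one amino-acid change in an essential protein, was grown for 48 h on minimal glucose agar with or without antibiotic; strain barcodes were sequenced; mean of two replicates.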

| Protein | fold change of barcode share |
| --- | --- |
| B1 | 0.423 ± 0.055 |
| B2 | 40.9 [active] |
| B3 | 0.33 ± 0.089 |
| B4 | 0.261 ± 0.17 |
| B5 | 0.192 ± 0.057 |

Same assay, conditions: antibiotic: gentamicin; 2× MIC (MIC 0.45 µg/mL)

| Protein | fold change of barcode share |
| --- | --- |
| B1 | 0.00579 ± 9.5e-05 |
| B3 | < 0.0168 |
| B4 | 0.00698 ± 0.0026 |
| B5 | 0.0218 ± 0.024 |
